# Reference: PubChem BioAssay AID686970 (National Center for Advancing Translational Sciences (NCATS), 2013)
# Out of some 360,000 compounds screened, about 6,000 (1.7%) were called active. Inconclusive means that the source gave no clear call. Such entries were picked first, then a sample of the others. The call rests on the fitted dose curve; in most records, active means well fitted cell-killing curve with a large enough effect; inconclusive means small, poorly fitted or top-dose-only effect, or effect the other way; inactive means flat fitted curve, though single readings scatter. No potency is given beside an inconclusive call; the fits are too rough.
# Assay: qHTS for induction of synthetic lethality in tumor cells producing 2HG: qHTS for the HT-1080-NT fibrosarcoma cell line;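 further: NT is the 2HG producing partner of a matched IDH1 knockdown line; nearly all actives have a fitted effect of over 55% in size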;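 on activity, negative = less viability: 0% = DMSO-treated cells and -100% = media-only wells without cells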
# Conditions: HT-1080-NT fibrosarcoma viability, CellTiter-Glo ATP luminescence, 48 h; activity, negative = less viability: at 46.1 µM (top of the series) unless noted
# Summary of the method: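 Compounds were tested in concentration-response format on HT-1080-NT cells for 48 hours at 37 degrees C. Cell viability came from CellTiter-Glo luminescence; curves were classified by r2, response magnitude and activity.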
# Potency means the concentration at half of the fitted maximal effect; tags describe the fitted curve by direction and shape.
SMILES,Potency,"activity, negative = less viability"
Cc1ccc(NC(=O)CNc2ccc(Cl)c(Cl)c2)cc1S(=O)(=O)N(C)C,"inconclusive [cytotoxic, partial curve]",
Cn1c(=O)cc(OCC(=O)NCCC2=CCCCC2)c2ccccc21,,inconclusive: 32.6%
COc1ccc(CC(=O)Nn2c(-c3ccccc3)nc3ccccc3c2=O)cc1,inactive,
O=C1CSC(c2cccc([N+](=O)[O-])c2)N1CCc1ccccc1 (stereo not given),inactive,
CSc1ccc(S(=O)(=O)NCC(=O)OCC(=O)NCc2cccs2)cc1[N+](=O)[O-],inactive,
Fc1ccc(CNC(=S)Nc2ccc(Cl)cc2)cc1,"inconclusive [cytotoxic, single point]",
CCN(CC(=O)NCc1ccc(F)cc1)C(=O)COc1ccc(C)c(C)c1,inactive,
COc1cc(C(O)c2nc(-c3ccc(C)c(C)c3)cs2)ccc1F (stereo not given),"inconclusive [cytotoxic, single point]",
O=C(c1ccco1)N1CCN(C2CN(Cc3ccc([N+](=O)[O-])cc3)S(=O)(=O)C2)CC1 (stereo not given),inactive,
COCCCNC(=O)C(=O)Nc1ccc2c(c1)N(S(=O)(=O)c1cccs1)CCC2,"inconclusive [cytotoxic, full curve]",
CSc1ccc(CN2CCC(C)(Oc3ccc(-n4ccnc4)cc3)C2)cc1 (stereo not given),"inconclusive [cytotoxic, partial curve]",
COc1ccc(CN2CCN(C(=O)c3cccc4ccccc34)CC2)cc1Br,"inconclusive [cytotoxic, single point]",
O=C(Nc1ccc2c(c1)OCO2)c1cc(C2CC2)on1,"inconclusive [cytotoxic, full curve]",
COC(=O)c1sccc1NC(=O)COc1ccc(C)cc1,inactive,
Cc1cc(/C=N/n2c(COc3ccccc3)nc3ccccc3c2=O)c(O)c([N+](=O)[O-])c1,"inconclusive [cytotoxic, partial curve]",
COc1ccc(/C=C/c2ccc3cccc(O)c3n2)c(OC)c1OC,"inconclusive [cytotoxic, single point]",
O=c1c2cc(NC(=S)NCCCN3CCC(Cc4ccccc4)CC3)ccc2nc2n1CCCCC2,active: 9.2 µM,
CN1C(=O)CC(N2CCN(CC(=O)N3CCCC3)CC2)C1=O (stereo not given),inactive,
Cc1cc(OCCn2cc(/C(N)=N/O)c3ccccc32)ccc1Cl,"inconclusive [cytotoxic, single point]",
Cc1cc(C)c2c(N)c(C(=O)N/N=C/c3ccccc3)sc2n1,,inconclusive: -2.91%
CCCCCCCCNc1ncnc2[nH]ncc12,,inconclusive: -23% [cytotoxic]
COc1ccc(S(=O)(=O)/N=C2\C=C(Nc3ccc(O)cc3)C(=O)c3ccccc32)cc1,active: 1.84 µM,
Cc1cc2nc(-c3ccc(SCc4ccccn4)nc3)[nH]c2cc1C,"inconclusive [cytotoxic, single point]",
CC1CCC(NC(=O)CC(C)(C)Cc2nc3ccccc3c(=O)[nH]2)CC1 (stereo not given),"inconclusive [cytotoxic, single point]",

SMILES,Potency,"activity, negative = less viability"
CCOC(=O)[C@]12CCC=C1N(Cc1ccc3c(c1)OCO3)C(=O)[C@H](CC(=O)N1CCN(C(=O)c3ccco3)CC1)C2,inactive,
O=C(Nc1nc2n(n1)C(c1ccc(Cl)cc1)CC(c1ccc(Cl)cc1)N2)c1ccco1 (stereo not given),active: 23.1 µM,
CC(NCCS(=O)(=O)c1ccc(Cl)cc1)c1cccc(Cl)c1 (stereo not given),inactive,
O=C(CN1C(=O)NC2(CCCCCCC2)C1=O)Nc1ccc(Br)cc1,"inconclusive [cytotoxic, single point]",
CC(=O)Nc1ccc(S(=O)(=O)NC(C(=O)O)C2=CCC=CC2)cc1 (stereo not given),inactive,
Cc1ccccc1Cn1cc(/C=N/n2cnnc2)c2ccccc21,"inconclusive [cytotoxic, single point]",
S=C(NCCc1ccccc1)N1CCc2ccccc2C1,"inconclusive [cytotoxic, single point]",
COc1ccc([C@H]2C[C@H](n3cc(-c4ccc(F)cc4)nn3)[C@@H](O)CN2CC2CCCCC2)cc1,"inconclusive [cytotoxic, single point]",
Cc1ccc(C2=NN=C(NC(=O)CSc3nncn3C)SC2)cc1,"inconclusive [cytotoxic, single point]",
CCn1c2ccccc2c2cc(NC(=O)c3ccc(=O)oc3)ccc21,"inconclusive [cytotoxic, partial curve]",
CCCCCC(=O)Nc1cccc(C2=NOC3(C2)C[C@@H](C(N)=O)N(C(=O)c2cc([N+](=O)[O-])cc([N+](=O)[O-])c2C)C3)c1 (stereo not given in full),inactive,
COc1ccc(C2=Nn3c(nnc3C3CCCCC3)SC2)cc1OC,"inconclusive [cytotoxic, single point]",
Cc1cc(C)cc(C(O)c2ncc(-c3ccc(Cl)cc3)[nH]2)c1 (stereo not given),"inconclusive [cytotoxic, partial curve]",
O=C(NC1CCN(Cc2ccccc2)CC1)c1cccc(S(=O)(=O)Nc2ccc(SC(F)F)cc2)c1,"inconclusive [cytotoxic, partial curve]",
CC(C)[C@@H]1CC[C@@H](C)C[C@H]1OC(=O)C[n+]1cc(-c2ccc(Cl)cc2)n2c1CCCCC2,active: 6.51 µM,
COc1cc2c(c(OC)c1OC)-c1ccc(SC)c(=O)cc1C(NC=O)CC2 (stereo not given),active: 0.0461 µM,
Cc1cc(/C=N/n2c(COc3ccccc3C)nc3ccccc3c2=O)c(O)c([N+](=O)[O-])c1,"inconclusive [cytotoxic, full curve]",
COc1ccc(/C=C/C(=O)NC(=S)N2CCN(c3ccccc3OC)CC2)cc1,inactive,
CC1(C(=O)Nc2cnc3ccccc3c2)CCN1Cc1ccc(OC(F)(F)F)cc1 (stereo not given),"inconclusive [cytotoxic, single point]",
CC(C)CCNC(=O)C(c1ccc(O)cc1)N(Cc1cccs1)C(=O)C1COc2ccccc2O1 (stereo not given),"inconclusive [cytotoxic, single point]",
C=CCc1ccccc1OCC(O)CNC (stereo not given),inactive,
CC(C)COC(=O)N1C[C@H](O)C[C@H]1C(=O)Nc1ccc(Cl)cc1,inactive,
CCOc1cc2[nH]c(=S)n(Cc3ccc(C(=O)NCCCN(CC)CC)cc3)c(=O)c2cc1OCC,"inconclusive [cytotoxic, single point]",
CCN1/C(=C/c2ccc3cc(C)ccc3[n+]2CC)Sc2ccccc21,active: 5.8 µM,

SMILES,Potency,"activity, negative = less viability"
N=c1c(C(=O)NCc2ccco2)cc2c(=O)n3ccccc3nc2n1C1CCCC1,inactive,
COc1ccc(CN(Cc2cccn2C)S(=O)(=O)c2ccc(C)cc2)cc1,inactive,
O=C(Nc1ccc2c(c1)C(=O)OC2)c1ccc(Cl)cc1Cl,"inconclusive [rising, partial curve, poor fit]",
COC(=O)C1=C(C)N(Cc2ccccc2)C(=NCc2ccccc2)N[C@H]1c1cccc(C(F)(F)F)c1,"inconclusive [cytotoxic, single point]",
c1ccc(Cn2c(CNc3nc4ccccc4n3CCN3CCOCC3)nc3ccccc32)cc1,"inconclusive [cytotoxic, single point]",
COc1ccc(N2CCN(CCCNC(=O)c3cc4sccc4n3C)CC2)cc1,"inconclusive [cytotoxic, single point]",
CCOCCCNC(=O)C(c1ccccc1)N(Cc1cccs1)C(=O)CNC(=O)c1ccccc1 (stereo not given),inactive,
NC(=O)c1ccc(NC(=O)COC(=O)C23CC4CC(CC(C4)C2)C3)cc1,inactive,
CC(C)CNC(=S)N1CCN(c2nc(-c3ccc(Cl)cc3)cs2)CC1,"inconclusive [cytotoxic, partial curve]",
CCOC(=O)c1c(CN(C)C)n(-c2ccccc2)c2cc(Br)c(OC)cc12,"inconclusive [cytotoxic, partial curve]",
CC(NC(=O)c1ccc(-c2ccccc2)cc1)C(c1ccccc1)N1CCOCC1 (stereo not given),"inconclusive [cytotoxic, single point]",
Cc1ccc(/C=C/C(=O)N2CCC(Cc3ccccc3)CC2)cc1,inactive,
c1ccc(Nc2nc(N3CCCC3)nc(N3CCCC3)n2)cc1,"inconclusive [cytotoxic, single point]",
CCCCNC(=O)C1(C)CCN1C(=O)c1cccc(OC(C)=O)c1C (stereo not given),"inconclusive [rising, single point]",
COc1cc(CNC(=O)Nc2nnc([C@@H]3C[C@H](O)[C@@H](CO)O3)s2)cc(OC)c1OC,"inconclusive [rising, single point]",
c1ccc2c(-n3cnnn3)cccc2c1,"inconclusive [cytotoxic, full curve]",
Cc1n(Cc2ccccc2)c2cc([N+](=O)[O-])ccc2[n+]1Cc1ccccc1,inactive,
CCOc1ccc(-n2c(C)nc3cc(C(=O)NCc4ccc5c(c4)OCO5)ccc32)cc1,inactive,
CCc1cccc(CC)c1NC(=O)CN1C2CCCC1CC(NC(=O)Nc1cccc(OC)c1)C2 (stereo not given),"inconclusive [cytotoxic, single point]",
O=C1N/C(=C/c2ccc(N3CCOCC3)o2)C(=O)N1c1ccccc1,"inconclusive [cytotoxic, single point]",
CSc1ccccc1C(=O)OCC(=O)Nc1c(C)n(C)n(-c2ccccc2)c1=O,inactive,
CCCCCCc1cc2cc(C(=O)Nc3ccccc3)c(=O)oc2cc1O,"inconclusive [cytotoxic, partial curve, poor fit]",
